# Experimental data published in ChEMBL document CHEMBL5606458, “ASAP - ZIKV NS2B-NS3 protease fluorescence single point” (2024).
# Among all 2,700 compounds or so, about 160 (5.9%) showed an effect of 50% or more. This is one part of the list.
# Target: Nonstructural protein 3 (Zika virus) (UniProt A0A024AXB9)
# [1] = PRVABC59, Concentration 15.0 uM, Number of replicates 1.0
# UniProt A0A024AXB9, sequence (A0A024AXB9 as listed by the source): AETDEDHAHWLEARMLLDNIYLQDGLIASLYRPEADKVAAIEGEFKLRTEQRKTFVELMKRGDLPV
structure (smiles),measurement,setting,value
CC(C)(CO)NC(=O)c1cc(Cl)cc(NC(=O)c2c[nH]c(=O)o2)c1,inhibition,"PRVABC59, Concentration 49.5 uM, Number of replicates 2.0, Standard deviation 1.797395007357769 %",-3.13%
same,inhibition,"PRVABC59, Concentration 99.01 uM, Number of replicates 2.0, Standard deviation 0.09962469746132278 %",-1.84%
same,inhibition,"PRVABC59, Concentration 198.0 uM, Number of replicates 2.0, Standard deviation 1.305498169009609 %",1.83%
CCCc1nn(C)c(C(N)=O)c1Nc1cccc2c(CO)cc(C)nc12,inhibition,"PRVABC59, Concentration 49.95 uM, Number of replicates 2.0, Standard deviation 0.2471963241382148 %",-9.7%
same,inhibition,"PRVABC59, Concentration 99.9 uM, Number of replicates 2.0, Standard deviation 0.6961850154508284 %",-9.45%
O=C(Nc1nc2ccccc2[nH]1)[C@@]1(c2ccc(F)cc2)CCCNC1,inhibition,"PRVABC59, Concentration 49.5 uM, Number of replicates 2.0, Standard deviation 0.5142138475157695 %",-1.33%
same,inhibition,"PRVABC59, Concentration 99.01 uM, Number of replicates 2.0, Standard deviation 0.5894647011135223 %",-0.336%
same,inhibition,"PRVABC59, Concentration 198.0 uM, Number of replicates 2.0, Standard deviation 0.8632939823423394 %",2.05%
O=C(NC12C[C@@H]3C[C@@H](CC(O)(C3)C1)C2)c1cc(Cl)ccc1NS(=O)(=O)c1ccc(Oc2ccccc2Cl)cc1,inhibition,[1],24.8%
COc1cc(C(=O)NCc2cccnc2)nc(N2CCNCC2)n1,inhibition,"PRVABC59, Concentration 49.5 uM, Number of replicates 2.0, Standard deviation 0.6669275161515361 %",-2.53%
same,inhibition,"PRVABC59, Concentration 99.01 uM, Number of replicates 2.0, Standard deviation 1.9680723371784548 %",-1.69%
same,inhibition,"PRVABC59, Concentration 198.0 uM, Number of replicates 2.0, Standard deviation 1.9753413198474317 %",-2.37%
CC(C)Nc1nc2ccc(C(=O)Nc3cnn(C)c3)cc2[nH]1,inhibition,"PRVABC59, Concentration 49.5 uM, Number of replicates 2.0, Standard deviation 3.535335309982554 %",0.42%
same,inhibition,"PRVABC59, Concentration 99.01 uM, Number of replicates 2.0, Standard deviation 3.632711052924425 %",2.59%
same,inhibition,"PRVABC59, Concentration 198.0 uM, Number of replicates 2.0, Standard deviation 2.7285080736948673 %",10.8%
Cc1ccc(NC(=O)c2cc(Cl)ccc2NS(=O)(=O)c2ccc(Oc3ccccc3Cl)cc2)cc1I,inhibition,[1],40.6%
NCc1cccc(NC(=O)C2CCN(C(=O)OCc3ccccc3)CC2)c1,inhibition,"PRVABC59, Concentration 49.5 uM, Number of replicates 2.0, Standard deviation 1.063181986313622 %",0.16%
same,inhibition,"PRVABC59, Concentration 99.01 uM, Number of replicates 2.0, Standard deviation 0.3526652722014522 %",3.48%
same,inhibition,"PRVABC59, Concentration 198.0 uM, Number of replicates 2.0, Standard deviation 0.2048572859981111 %",11.4%
O=C(NCc1ccc(I)cc1)c1cc(Cl)ccc1NS(=O)(=O)c1ccc(Oc2ccccc2Cl)cc1,inhibition,[1],31.2%
Cc1cnccc1NC(=O)c1ccccc1-n1cccn1,inhibition,"PRVABC59, Concentration 49.5 uM, Number of replicates 2.0, Standard deviation 1.6031912013311809 %",-1.08%
same,inhibition,"PRVABC59, Concentration 99.01 uM, Number of replicates 2.0, Standard deviation 1.0324715376321894 %",-1.12%
same,inhibition,"PRVABC59, Concentration 198.0 uM, Number of replicates 2.0, Standard deviation 2.152117382941341 %",-1.88%
O=C(Nc1ncnc(Cl)c1Cl)c1cc(Cl)ccc1NS(=O)(=O)c1ccc(Oc2ccccc2Cl)cc1,inhibition,[1],21.6%
Cc1cc(CO)c2cccc(NC(=O)CNC3CC3)c2n1,inhibition,"PRVABC59, Concentration 49.95 uM, Number of replicates 2.0, Standard deviation 1.7513317050958486 %",17.8%
same,inhibition,"PRVABC59, Concentration 99.9 uM, Number of replicates 2.0, Standard deviation 1.7111876748261923 %",28.9%
Cc1cc(CO)c2cccc(NC(=O)[C@H]3CCNC3)c2n1,inhibition,"PRVABC59, Concentration 49.95 uM, Number of replicates 2.0, Standard deviation 1.562551081581127 %",-4.16%
same,inhibition,"PRVABC59, Concentration 99.9 uM, Number of replicates 2.0, Standard deviation 2.5850257028478962 %",4.64%
Nc1ccc(-c2ccc3c(c2)OB(O)CC3)cn1,inhibition,"PRVABC59, Concentration 49.5 uM, Number of replicates 2.0, Standard deviation 0.35544755425905034 %",1.29%
same,inhibition,"PRVABC59, Concentration 99.01 uM, Number of replicates 2.0, Standard deviation 1.2113279059483235 %",2.62%
same,inhibition,"PRVABC59, Concentration 198.0 uM, Number of replicates 2.0, Standard deviation 0.018707805942227557 %",3.08%
same,inhibition,"PRVABC59, Concentration 500.0 uM, Number of replicates 2.0, Standard deviation 2.4968029080205287 %",9.35%
O=C(c1cc(Cl)ccc1NS(=O)(=O)c1ccc(Oc2ccccc2Cl)cc1)N1CCOCC1,inhibition,[1],17.6%
Cc1nc(CNC(=O)c2[nH]c([C@H]3CCCNC3)nc2C)c[nH]1,inhibition,"PRVABC59, Concentration 49.5 uM, Number of replicates 2.0, Standard deviation 2.392781282735155 %",2.71%
same,inhibition,"PRVABC59, Concentration 99.01 uM, Number of replicates 2.0, Standard deviation 2.3433276879790186 %",5.99%
same,inhibition,"PRVABC59, Concentration 198.0 uM, Number of replicates 2.0, Standard deviation 2.4308218480893298 %",12.6%
O=C(Nc1cc(Cl)ccc1Br)c1cc(Cl)ccc1NS(=O)(=O)c1ccc(Oc2ccccc2Cl)cc1,inhibition,[1],24.1%
